From the supplement of paper PMC11417369
The list shows a part of the results.

Test system: PfSIP2 AP2 domain 1 (GST-tagged)
Experiment: gcPBM binding intensity (ln(normalized median fluorescence intensity)); higher = stronger DNA binding
Method in brief: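 Plasmodium falciparum DNA-binding domains carrying a GST tag were expressed in E. coli and applied for 1 h, at about 25 μg on average, to an Agilent 4 × 180k array. The array held primer-extended double-stranded 36-bp intergenic genomic probes together with negative controls, and binding took place in 1× PBS with 1% milk, 0.2 mg/ml BSA, 0.5% salmon testes DNA and 0.03% Triton X-100. An Alexa488 anti-GST antibody detected bound protein, and the array was scanned at 488 nm. Binding intensity is taken as the highest Masliner-normalised natural-log median intensity across replicate spots of either probe orientation.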

“CCGCCATTGTACCATCCACACACATATATATATGTA [CACACA_site8866]” and “ATTATATATATATTATGTACATATATTGAAGTGGAT [XGTACX_site5916]” are the same in “gcPBM binding intensity (ln)” value: 7.56 for the first, 7.56 for the second.

Compared with “ACGGATTAAAAAATGTGTACGCACAAAAAAAAAAAT [XGTACX_site8259]”, “TACGAAATCATATGTACACACACATATATATATATA [CACACA_site5216]” is higher in “gcPBM binding intensity (ln)” value: 7.17 for the first, 9.34 for the second.

First: ATATATATATATATATGTACTTAATGTTATTATATA [XGTACX_site4508]
Second: TGTTCAGTATTGCACACACACAACAAAATAAAAAAA [CACACA_site6314]
The “gcPBM binding intensity (ln)” value of the first is higher: 9.13 for the first, 7.42 for the second.

Going from “GAAATGTGATAATATACACACACGCATATATATATA [CACACA_site4332]” to AAATAGTTGTTAAAGGTGCACAATATGGATATAAGA, the “gcPBM binding intensity (ln)” value rises from 9.04 to 11.2.

First: TGAAAATATATAACGCGTACAAAAAGGAAATACAAT [XGTACX_site3534]
Second: TTTTTTTTTTTTTTTGCATGTTGAAAATAAAATTAT [TGCATGCA_site86]
The “gcPBM binding intensity (ln)” value of the first is higher: 7.36 for the first, 6.92 for the second.

Going from ATTTATTTTAAATAAGTGCAAAATGGTTATAAATAA to “AAAATTTCAATAAATACACACATATAAATATAGATT [CACACA_site6893]”, the “gcPBM binding intensity (ln)” value falls from 8.23 to 6.75.

Going from “ATAAATATTTTGTAAGCATGCTTTTAAAAAAAGAAA [TGCATGCA_site572]” to “ATGTACTATAGGCACACACACTCACATATATATATA [CACACA_site5745]”, the “gcPBM binding intensity (ln)” value rises from 6.79 to 9.64.

First: GGAAAAAAATAAAATAAGTATTTTACATACATATTG [TGCATGCA_negctrl_site10]
Second: ATATATTTTTATATAGTGCAAGTAATAAAAAGGAAT
The “gcPBM binding intensity (ln)” value of the first is lower: 6.63 for the first, 8.91 for the second.

First: ATAACATTCAAAAAATGTACAAACATATGAATAAAT [XGTACX_site7013]
Second: ATATCATTTTATTTGTGTACTTAAAAAGTTGCAATG [XGTACX_site4099]
The “gcPBM binding intensity (ln)” value of the first is lower: 6.93 for the first, 7.51 for the second.

Going from “AAAACTTTTTTAACAGAAAAATAGGGATACAATATA [CACACA_negctrl_site1708]” to “GGAATAACCAGACACACACACACATATAAATATGTA [CACACA_site7632]”, the “gcPBM binding intensity (ln)” value falls from 7.16 to 7.05.

Compared with “TAAATACAAGAACTGACACACATACATACTACATTT [CACACA_site5561]”, “GAACAAAAAAAAAATTGTACACAATTTTTTAAAATT [XGTACX_site4455]” is lower in “gcPBM binding intensity (ln)” value: 6.95 for the first, 6.73 for the second.

Compared with “ATGATTTATTATTATACACACAAAAAAAAAAAAGGA [CACACA_site264]”, “AATACATACATATATACATGCATACATATAAATATA [TGCATGCA_site674]” is higher in “gcPBM binding intensity (ln)” value: 7.21 for the first, 7.4 for the second.

First: GCTTATAAGATATGCACACACAACACTTACAAAAAA [CACACA_site817]
Second: AAACAAAAAAAATAAGCACACATATATATATATATA [CACACA_site8173]
The “gcPBM binding intensity (ln)” value of the first is lower: 7.66 for the first, 9.64 for the second.

First: AAAATTATATGTAATTGTACGGAATTATATACGCAA [XGTACX_site2048]
Second: TCCTGTGGTTATATAACACACATTATTGCTTATAAG [CACACA_site6823]
The “gcPBM binding intensity (ln)” value of the first is higher: 7.1 for the first, 6.92 for the second.

First: TTTTTTAAAAATATTATCATCGTAACAAGAAATCGA [CACACA_negctrl_site1111]
Second: ATATTGCTTATTTGATGTACGAATACACTAGTATTA [XGTACX_site4536]
The “gcPBM binding intensity (ln)” value of the first is lower: 7.13 for the first, 7.37 for the second.

First: ATACTAAATGAACACACACACATATAGATTTATAAC [CACACA_site6200]
Second: TATCTGTATATGTGTACACATATTCTTAACTCACGC [CACACA_site4255]
The “gcPBM binding intensity (ln)” value of the first is higher: 7.07 for the first, 7.06 for the second.

First: ATTTTATGAAATGTTGCACACAAAAAACAACATGTT [CACACA_site8408]
Second: GAACAACAACAAAAAAAAAAAAAAAAAAAAAAAAAA [CACACA_negctrl_site199]
The “gcPBM binding intensity (ln)” value of the first is higher: 7.66 for the first, 7.04 for the second.

Compared with “TAAATAAATATATGTACACACACAAATATATACATA [CACACA_site8577]”, “TATATGATATAATATACACACATACATATATATATA [CACACA_site8066]” is higher in “gcPBM binding intensity (ln)” value: 7.12 for the first, 8.99 for the second.

Going from “CTGAATTTTTATAACTGTACATATTTGATATAAAAA [XGTACX_site183]” to “ATGGGAAAAACATTCCGTACATACATACACATATAT [XGTACX_site8263]”, the “gcPBM binding intensity (ln)” value falls from 7.27 to 7.15.

Going from “ATATTTAATACAAATACACACACAAATATATACATA [CACACA_site9248]” to “GAAATCTAATTTATTACACACATTTGAAAAAAATTC [CACACA_site6640]”, the “gcPBM binding intensity (ln)” value falls from 7.11 to 6.69.

First: TTATATTTTTTTGAGTGTACTTTTTGTGTAAAATTC [XGTACX_site2155]
Second: ACCCATTTTTGTTGTTCTATATATTCGTGAATCATT [CACACA_negctrl_site614]
The “gcPBM binding intensity (ln)” value of the first is lower: 7.1 for the first, 7.46 for the second.

First: AATTTTTTGAATAATTGTACATATTTGGTTAAATAT [XGTACX_site3612]
Second: TTACTAAGAAGGATTTATTTTATAAAAATATTTATT [XGTACX_negctrl_site549]
The “gcPBM binding intensity (ln)” value of the first is higher: 6.97 for the first, 6.53 for the second.

Compared with “ATATTTTATACTTGCACACAAAATATATTAGAATGT [CACACA_site1985]”, “TTTTTTTTTTTTTTTGCACACTTAAATTTGGTGGGG [CACACA_site2344]” is higher in “gcPBM binding intensity (ln)” value: 7.27 for the first, 7.67 for the second.

Compared with “CACGCGCACGAACACACACACACACGCATATAAATA [CACACA_site7103]”, “ATATTATTTTATTTTTGTACAGATATCTTTAAAAAA [XGTACX_site3734]” is lower in “gcPBM binding intensity (ln)” value: 7.29 for the first, 7.22 for the second.

First: TACAGATAAATATACATACATATATATATATATATA [XGTACX_negctrl_site182]
Second: TTATTAAAAATGGTATGTACGCACATAATATATATA [XGTACX_site3230]
The “gcPBM binding intensity (ln)” value of the first is higher: 9.01 for the first, 7.73 for the second.

Compared with “AACATCATCTCTCCACAACAACAAAAAAAAAAATAC [CACACA_negctrl_site311]”, “AATACATACATACATACATGCATATATATATATATA [TGCATGCA_site462]” is higher in “gcPBM binding intensity (ln)” value: 7.27 for the first, 9.8 for the second.

Compared with “TGTTTATGTTTACATGTGCGCATTACAGAAAAAAAA [GTGCAC_site9669]”, “TATTTTTATTGGTGAATACACACGTATATATATATT [CACACA_site2401]” is lower in “gcPBM binding intensity (ln)” value: 8.92 for the first, 7.07 for the second.

Going from “TTTTTATTTAAAAGTAGTACAAGGGTTATTATTAAC [XGTACX_site1555]” to “ACATGTATACTTTTTACGAAAAAAAAAAAAAAAAAA [CACACA_negctrl_site1638]”, the “gcPBM binding intensity (ln)” value falls from 7.42 to 6.89.

Going from “ATTTCGTAATTTATATCACACACATATATATATAAT [CACACA_site9021]” to “ATCATTTTTATAAATTGTACAAATATTTTTTATACA [XGTACX_site7551]”, the “gcPBM binding intensity (ln)” value falls from 7.23 to 6.95.

Going from “CATATTATTTATATTTGTACACAGCGATATGAAATA [XGTACX_site7717]” to “CTTACATAAAATATCACACACATAAAAAAACAATAT [CACACA_site1901]”, the “gcPBM binding intensity (ln)” value rises from 7.1 to 7.26.

Going from TATATATATATATATGTGCACATATATATGATATTA to “TTATATAAATATAAGGTGCTGGGGTTTATTACATAT [GTGCAC_site9909]”, the “gcPBM binding intensity (ln)” value falls from 9.27 to 7.21.

First: CACCAATTCATATGCACACACATCTGCATATTATAG [CACACA_site6925]
Second: ATATCGCACGTTTGAAGTACATAAAAACGATTAATA [XGTACX_site7684]
The “gcPBM binding intensity (ln)” value of the first is higher: 7.56 for the first, 7.47 for the second.

First: TATAAAATATAAATTTGTACATATAAAATATTTTAT [XGTACX_site7462]
Second: TTTTTTAAAATATAAAATATGTACAAATATGTTGAA [GTGCAC_negctrl_site379]
The “gcPBM binding intensity (ln)” value of the first is lower: 7.15 for the first, 7.36 for the second.

Going from “TAATAGTTATAAAATACACACCAGGCATGATAAATG [CACACA_site4335]” to “AATATTTTAAAAAAATGTACTTTTAACCCTTATTGG [XGTACX_site3490]”, the “gcPBM binding intensity (ln)” value rises from 6.71 to 6.8.

Going from “ATATATGGGTAGTATACACACTGTATATTTAGGAAT [CACACA_site7357]” to “GTATGAAAAAAATATGCATGCTAAATAATAAATGTT [TGCATGCA_site352]”, the “gcPBM binding intensity (ln)” value rises from 6.91 to 6.93.

Going from “TATATATATATACATACATATAAAGTTACATAAACA [CACACA_negctrl_site432]” to “GAACAAACAAAGAAAGAACACACATACACAATATAC [CACACA_site8918]”, the “gcPBM binding intensity (ln)” value falls from 9.43 to 7.13.

Going from “TAGATTTTTTTACATTGTACATATTTTTTCTTATAG [XGTACX_site293]” to “AAAACAAACGGACACACACACATATATATATATATA [CACACA_site5924]”, the “gcPBM binding intensity (ln)” value rises from 6.87 to 9.72.

Going from “ACATGTAAATTTACATGTACATGTAACACTTAATAT [XGTACX_site4575]” to “TACATATTTACTATCACACACACGATATATATAAAT [CACACA_site1242]”, the “gcPBM binding intensity (ln)” value rises from 7.05 to 7.36.

Going from “ATACGAAAAAATAGACGTACTATGAAATAATAATTT [XGTACX_site8387]” to “TACTTAAAAAAAAAAAAAATAAATATTATGTATTAT [CACACA_negctrl_site138]”, the “gcPBM binding intensity (ln)” value falls from 6.87 to 6.64.

First: TAATATTTTAATTGTGTGCACATTAATATTATAAAA
Second: TTTAGTGAGTTTGTTGTGCACTGAAAAAATTACAAT
The “gcPBM binding intensity (ln)” value of the first is lower: 9.3 for the first, 10.5 for the second.

First: TATATTATTTTTTGTGGTACATGTATTTTTACCTAA [XGTACX_site4348]
Second: ATATGCTATTAATTATGTACATATATATATATATAT [XGTACX_site4901]
The “gcPBM binding intensity (ln)” value of the first is lower: 7.48 for the first, 9.69 for the second.

Compared with “GTACATTATATATATACACACATACATAATAAAGAA [CACACA_site5528]”, “GGACTATACAGTTATACACACACATATATATATAAT [CACACA_site7991]” is lower in “gcPBM binding intensity (ln)” value: 7.33 for the first, 7.13 for the second.

Compared with “ATGCATACACTTATATGTACACATTTACATATTATT [XGTACX_site2841]”, “AATAAATAAATATATTGTACATATATATATATATAT [XGTACX_site8627]” is higher in “gcPBM binding intensity (ln)” value: 7.09 for the first, 9.67 for the second.

Compared with “CGAAAGGAAATATAACGTACATAAGATTATATTCAC [XGTACX_site3868]”, “ATGAACAAGGGGCACACACACATTATGACTAATTTA [CACACA_site3204]” is higher in “gcPBM binding intensity (ln)” value: 6.88 for the first, 7.6 for the second.

In the case of “TATTAAAAGAAAAAAAAAAAAAAATTAATACATATA [XGTACX_negctrl_site582]”, the “gcPBM binding intensity (ln)” value is reported as 6.62.
